Results on 44 molecules are retold here after ChEMBL document CHEMBL4888484, “Replenishing the malaria drug discovery pipeline: Screening and hit evaluation of the MMV Hit Generation Library 1 (HGL1) against asexual blood stage Plasmodium falciparum ,using a nano luciferase reporter read-out” (2022).

Among all 150,000 compounds or so, about 540 (0.36%) showed an effect of 50% or more. This is one part of the list.

The subject of the assay is Plasmodium falciparum. Kind of assay: Primary screen in NF54 nanoGlo assay, in single point, at 2uM, 72h; a lower Z score goes with more inhibition. It is filed as functional, Erythrocyte. As to conditions: timepoint 72 hour.
For the molecule `COc1cccc(Cn2cccc(S(=O)(=O)N3CCCC3)c2=O)c1`, the “% Inhibition” value was -16% and the Z score was 2.11.

As for `CCN1CC[C@H](NC(=O)c2cccnc2)C1=O`, the “% Inhibition” value is -7% and the Z score is 1.04.

In the case of `CCCC(C)(C)NC(=O)c1c[nH]c(=O)c(Cl)c1`, the “% Inhibition” value was 6% and the Z score is -0.76.

With `Cc1cc(OCC(=O)NCCn2nc(-n3cncn3)ccc2=O)cc(C)c1Cl`, the “% Inhibition” value is -4% and the Z score turned out to be 0.73.

As for `CC(C)(C)c1cc(CN2CCn3cncc3C2)n[nH]1`, the “% Inhibition” value is -10% and the Z score is reported as 1.3.

For the molecule `C1CCC(Cc2noc([C@H]3CCCc4[nH]nnc43)n2)C1`, the “% Inhibition” value was -16% and the Z score is 2.24.

`COc1ccc(N2CCN(C(=O)COc3ccc(Cl)cc3)[C@@H](C)C2=O)cc1`: the “% Inhibition” value was -12% and the Z score turned out to be 2.02.

On to `CC(C)(C)OC(=O)N1CCC(CC(=O)NCCOCCn2cccn2)CC1`, for which the “% Inhibition” value is given as -2% and the Z score is given as 0.37.

`CCOC1CC(N(C)C(=O)c2c[nH]c3cccnc23)C12CCCCC2` (stereo not drawn): the “% Inhibition” value was found to be 4% and the Z score is -0.78.

Take `O=C(C[C@H]1C(=O)NCCN1Cc1ccccc1)NC1(CO)CCCC1`: the “% Inhibition” value was -9% and the Z score was found to be 1.13.

Regarding `O=C(Nc1ccnn1C1CCN(c2ccnc3ccccc23)CC1)[C@H]1CCOC1`, the “% Inhibition” value is reported as -13% and the Z score was 1.42.

Turning to `COc1ccccc1CN[C@H](C(=O)OC(C)(C)C)c1ccccc1`, the “% Inhibition” value is given as -3% and the Z score amounted to 0.28.

Turning to `Cc1ccc(S(=O)(=O)CC(=O)N2CCCc3ccccc32)cc1`, the “% Inhibition” value is on record as -1% and the Z score is recorded as 0.17.

`Cc1ccc(C)c(CC(=O)N2CCC(N3CC=CC3)CC2)c1`: the “% Inhibition” value is on record as -10% and the Z score came out at 1.34.

As to `OCC1(CCCc2ccccc2)CCN(CC#Cc2ccccc2)CC1`, the “% Inhibition” value is on record as -14% and the Z score is listed as 1.6.

Consider `Cc1ccc2c(c1C)N(S(=O)(=O)c1ccoc1)CCC2`, for which the “% Inhibition” value amounted to 11% and the Z score was -1.18.

On to `O=C1COCC(=O)N1Cc1cccc(Br)c1`, for which the “% Inhibition” value is reported as -5% and the Z score worked out at 0.88.

In the case of `CCn1cc(CC(=O)NCc2cc(F)cc(F)c2)c2cccnc21`, the “% Inhibition” value was -17% and the Z score is recorded as 1.96.

As for `CCCn1nc(C(=O)N(CCC(C)C)CCC(C)C)ccc1=O`, the “% Inhibition” value is listed as -10% and the Z score was 0.85.

Regarding `CCn1nccc1C(=O)Nc1ccc2c(c1)OCO2`, the “% Inhibition” value is listed as -15% and the Z score is on record as 2.63.

Turning to `CCC(=O)Nc1cc(NC(=O)N(CC)CC2CCOCC2)ccc1OC`, the “% Inhibition” value was -8% and the Z score is 1.44.

Turning to `C[C@H]1CN(S(=O)(=O)N2CCCCCCC2)CCO1`, the “% Inhibition” value is given as -14% and the Z score is listed as 1.96.

On to `CC1CCC(NC(=O)NCC2CS(=O)(=O)c3ccccc32)CS1(=O)=O` (stereo not drawn), for which the “% Inhibition” value was -6% and the Z score came out at 1.03.

For `CCOC(=O)CCC(=O)Nc1cc2c(cc1F)N(C)S(=O)(=O)N2C`, the “% Inhibition” value was 13% and the Z score is listed as -1.68.

Consider `CCc1ccc(CNC(=O)c2cn3c(n2)C(=O)N(CCOC)CC3)cc1`, for which the “% Inhibition” value is -14% and the Z score came out at 1.85.

For the molecule `COc1ccc(Nc2nc(N3CCOCC3)nc3ccccc23)c(OC)c1`, the “% Inhibition” value is 6% and the Z score was -0.79.

On to `COc1ccc2nc(-n3nc(C)cc3NC(=O)c3ccno3)sc2c1`, for which the “% Inhibition” value was -14% and the Z score stood at 2.11.

For the molecule `Cn1nc(C(=O)N2CCNC(=O)[C@@H]2c2cccs2)c2c1CCCC2`, the “% Inhibition” value is given as -11% and the Z score is reported as 1.44.

On to `O=C1CN(c2ccc(CNC(=O)C3CC4CCC3C4)cc2)CCN1` (stereo not drawn), for which the “% Inhibition” value is listed as 0% and the Z score worked out at 0.04.

On to `O=C(Nc1cc(S(=O)(=O)N2CCCC2)ccc1O)c1cncc(Br)c1`, for which the “% Inhibition” value amounted to 27% and the Z score is on record as -3.46.

With `COc1ccc([C@@H](C)CN2CC(C3CS(=O)(=O)C3)C2)cc1`, the “% Inhibition” value was 2% and the Z score is -0.33.

As for `Cc1ccccc1-n1c(=O)cc(N2CCc3ccccc32)[nH]c1=O`, the “% Inhibition” value is 2% and the Z score is -0.41.

For `O=C(Cc1n[nH]c2c1CCCC2)NC[C@H]1CCCC2(CCC2)O1`, the “% Inhibition” value is -6% and the Z score is reported as 1.09.

Turning to `Nc1cc(Br)c(OC(F)(F)F)cc1N`, the “% Inhibition” value was -7% and the Z score amounted to 0.9.

On to `CNC(=O)CCCN(C)Cc1ccc(Cl)cc1F`, for which the “% Inhibition” value was found to be 0% and the Z score was determined as 0.04.

For `CCc1nc(NCCN2CCCC2)c2cc(Cl)cc(Cl)c2n1`, the “% Inhibition” value is reported as -3% and the Z score is given as 0.52.

With `COc1ccc(-c2cnc3ncnn3c2N2CCCN(S(=O)(=O)c3cccc(Cl)c3C)CC2)cc1`, the “% Inhibition” value is recorded as -7% and the Z score is 0.73.

For `CS(=O)(=O)Nc1ccc2c(c1)NC(=O)C[C@@H]2c1cnc2ccccc2n1`, the “% Inhibition” value was -1% and the Z score stood at 0.12.

Regarding `CC(C)(C)NS(=O)(=O)Cc1cccc(N)c1`, the “% Inhibition” value was -11% and the Z score is reported as 1.62.

For `Cc1cc(C(=O)N2CCCCC[C@H]2c2nnc(C)o2)c(C)o1`, the “% Inhibition” value is reported as -8% and the Z score was 1.6.

Consider `Cc1cc(NC(=O)CN2CCCC[C@H]2c2nc(C)cs2)on1`, for which the “% Inhibition” value is given as -4% and the Z score is on record as 0.75.

As to `CCCC1(CCC)CCCN1C(=O)c1ccc(=O)n(CC)n1`, the “% Inhibition” value was -8% and the Z score is 1.04.

On to `CCc1cnc(C)nc1N1CCC(NCCCc2nc(C)cs2)CC1`, for which the “% Inhibition” value is recorded as -4% and the Z score worked out at 0.77.

As to `CC(=O)N1CCC[C@H](NS(=O)(=O)c2ccnn2C(C)C)C1`, the “% Inhibition” value is recorded as 0% and the Z score is listed as -0.02.

Broadly, the % Inhibition is the change of the read-out against control, counted positive when it falls.
